# Laboratory results from PubChem BioAssay AID1476 (National Center for Advancing Translational Sciences (NCATS), 2009).
# About 4,500 (2.2%) of roughly 200,000 compounds were called active. The inconclusive results got no clear call from the source; some entries with a clear call stand among them for comparison. Calls follow the shape of the dose curve; as a rule, active = well fitted inhibition curve with a large enough effect; inconclusive = small, poorly fitted or top-dose-only effect, or effect the other way; inactive = flat fitted curve, though single readings scatter. Potencies of inconclusive entries are doubtful fits and often do not repeat.
# Target: Cruzipain (Trypanosoma cruzi) (UniProt P25779)
# Test: qHTS Assay for Promiscuous and Specific Inhibitors of Cruzain (without detergent); also: nearly all actives have a fitted effect of over 40% in size;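 as to max response, negative = inhibition: plate controls were enzyme without inhibitor for no effect and buffer without enzyme for full effect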
# Settings: purified cruzain, Z-FR-AMC fluorescence, no detergent
# Outline: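 Detergent-free condition (0.00005% Triton X-100) in acetate buffer pH 5.5 with DTT. 1.5 nM enzyme and compound were pre-mixed 15 min, then 2 uM Z-FR-AMC substrate added; reaction progress from fluorescence change between first and third reads (60 s).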
# Potency is read from the fitted curve at half-maximal effect; tags tell the direction and shape of the fitted curve.
# UniProt P25779, sequence (P25779 whole entry, looked up): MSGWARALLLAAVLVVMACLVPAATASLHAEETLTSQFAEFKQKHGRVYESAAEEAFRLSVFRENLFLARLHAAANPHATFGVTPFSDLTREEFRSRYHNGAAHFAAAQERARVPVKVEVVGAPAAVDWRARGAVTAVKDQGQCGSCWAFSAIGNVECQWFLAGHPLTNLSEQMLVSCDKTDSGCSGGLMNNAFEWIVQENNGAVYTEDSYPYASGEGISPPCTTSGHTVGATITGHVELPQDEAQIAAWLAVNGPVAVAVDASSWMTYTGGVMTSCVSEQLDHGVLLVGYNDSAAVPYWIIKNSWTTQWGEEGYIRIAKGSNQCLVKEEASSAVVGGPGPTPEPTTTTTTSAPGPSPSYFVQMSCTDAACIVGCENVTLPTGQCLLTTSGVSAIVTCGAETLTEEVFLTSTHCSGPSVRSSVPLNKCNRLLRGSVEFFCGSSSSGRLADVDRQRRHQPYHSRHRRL
SMILES,Potency,"max response, negative = inhibition"
CCCCOc1ccccc1C1C(C(=O)OC)=CN(CC)C=C1C(=O)OC,"inconclusive: 31.6 µM [activator, single point]",–
C=CCn1c(=NC(=O)c2sc3ccccc3c2Cl)sc2cc(S(N)(=O)=O)ccc21,active: 20 µM,–
COc1ccc(/C=C(/C(=O)c2ccc(Cl)cc2Cl)n2cncn2)cc1,"inconclusive: 25.1 µM [activator, single point]",–
Cc1ccc(N2CC(NC(=O)Cc3cccs3)CC2=O)cc1C (configuration not stated),–,inactive: -1.69%
CCOC(=O)N1CCc2c(sc(NCc3cccc(F)c3)c2C(=O)Nc2ccccc2OCC)C1,"inconclusive: 39.8 µM [activator, single point]",–
CCOC(=O)N1CCN(C(=O)CS(=O)(=O)c2cn(Cc3ccc(Cl)cc3)c3ccccc23)CC1,"inconclusive: 25.1 µM [activator, single point]",–
CCOc1ccc(-c2nonc2NC(=O)c2oc3ccc(Br)cc3c2C)cc1,"inconclusive: 39.8 µM [inhibitor, single point]",–
CCN(CC)c1ccc(/C=N/NC(=S)NCc2ccccc2)cc1,"inconclusive: 31.6 µM [inhibitor, single point]",–
Cc1ccccc1C(=O)N1CCN(c2ccc([N+](=O)[O-])c(N3CCOCC3)c2)CC1,"inconclusive: 39.8 µM [activator, single point]",–
COc1ccc(/C=N/n2c(N)nc(-c3ccccc3)c2-c2ccccc2)cc1,"inconclusive: 39.8 µM [inhibitor, single point]",–
CC(C)(C)N1C(=O)c2ccc(C(=O)Nc3ccc(-c4nc5ccccc5[nH]4)cc3)cc2C1=O,–,inactive: 8.21%
CCc1ccc(OC(C)C(=O)N2CCC(c3nc4ccccc4s3)CC2)cc1 (configuration not stated),"inconclusive: 31.6 µM [activator, single point]",–
CC1Cc2ccccc2N1S(=O)(=O)c1cccc(C(=O)OCC(=O)NC2CCS(=O)(=O)C2)c1 (configuration not stated),"inconclusive: 31.6 µM [activator, single point]",–
CC(C)COc1ccc(C(=O)Nc2cccc(-c3nc4ccccc4[nH]3)c2)cc1,"inconclusive: 12.6 µM [inhibitor, single point]",–
Cc1ccc(CNC(=O)c2cc3c(s2)-c2ccccc2SC3)cc1,"inconclusive: 39.8 µM [inhibitor, single point]",–
COc1ccc(Cl)cc1NC(=O)CCS(=O)(=O)c1nc(-c2cccs2)cc(C(F)(F)F)n1,"inconclusive: 25.1 µM [inhibitor, single point]",–
CCOC(=O)N1CCC(n2c(SCC(=O)N3CCC(C)CC3)nc3ccccc3c2=O)CC1,"inconclusive: 25.1 µM [activator, partial curve]",–
COc1ccc(NC(=O)c2cc(Cl)ccc2Cl)c([N+](=O)[O-])c1,–,inactive: -5.4%
CC1CCn2c(nc3cc(C(=O)NCCc4ccc(Cl)cc4)ccc32)C1 (configuration not stated),"inconclusive: 0.0631 µM [inhibitor, single point]",–
CSc1nc2ccc(NC(=O)c3nn(C(C)C)c(=O)c4ccccc34)cc2s1,"inconclusive: 7.94 µM [activator, full curve]",–
Cc1cccc(CNC(=O)Cn2nc(C)n3c(cc4cc(F)ccc43)c2=O)c1,–,inactive: -10.6%

SMILES,Potency,"max response, negative = inhibition"
CN(c1ncnc2onc(-c3cccc(Cl)c3)c12)C1CCCCC1,–,inactive: -1.91%
COc1ccc(N2CC(NC(=O)COc3ccccc3)CC2=O)cc1OC (configuration not stated),–,inactive: 0.0574%
COc1ccc([N+](=O)[O-])cc1NC(=O)c1ccc(CN(c2ccc(C)c(C)c2)S(C)(=O)=O)cc1,"inconclusive: 31.6 µM [inhibitor, single point]",–
Cc1ccc(-n2c(=O)c3c(C)c(C(=O)N(C)C)sc3n(CC(=O)C(C)(C)C)c2=O)cc1C,–,inactive: -0.271%
CCOC(=O)N1CCC(NC(=O)CN2C(=O)COc3ccc(C(C)(C)C)cc32)CC1,"inconclusive: 31.6 µM [activator, single point]",–
CCc1cccc(NC(=O)C2CCN(C(=O)c3cnn(-c4ccccc4)c3-n3cccc3)CC2)c1,"inconclusive: 39.8 µM [activator, single point]",–
Nc1nc(Nc2ccccc2F)sc1C(=O)c1ccc(Cl)cc1,–,inactive: -28.9%
CCOC(=O)N1CCN(C(=O)c2ccc3c(=O)n(CCC4=CCCCC4)c(=O)[nH]c3c2)CC1,"inconclusive: 31.6 µM [activator, single point]",–
CN1CCN(CC(=O)Nc2cccc3ccccc23)CC1,–,inactive: 6.39%
CN(C1=NC(=O)C(CC(=O)Nc2ccc(Br)cc2)S1)c1ccc(O)cc1 (configuration not stated),"inconclusive: 39.8 µM [inhibitor, single point]",–
Cc1cccc(N2CCN(S(=O)(=O)c3ccc4c(c3)CCN4C(=O)CCC(=O)O)CC2C)c1 (configuration not stated),"inconclusive: 20 µM [activator, partial curve]",–
COc1ccc(F)cc1S(=O)(=O)NCCc1csc2nc(-c3cccc(C)c3)nn12,"inconclusive: 25.1 µM [activator, single point]",–
CCOC(=O)c1c(S(=O)(=O)N2CCCC(C(=O)NCc3ccc(Cl)cc3)C2)c(C)n(C)c1C (configuration not stated),"inconclusive: 31.6 µM [activator, single point]",–
Cc1c(Cl)cccc1-c1ccc(C(=O)Nc2ccc(F)cc2)o1,–,inactive: 6.33%
CCOC(=O)CSc1nnc(NC(=O)c2cccc(S(=O)(=O)N3CCCCC3)c2)s1,active: 20 µM,–
COc1ccc(NC(=O)C(=O)NCCC2=CCCCC2)c(OC)c1,–,inactive: 3.44%
Cc1ccccc1NC(=O)C1CCN(c2cc(-c3ccccc3)nc3ncnn23)CC1,"inconclusive: 15.8 µM [inhibitor, single point]",–
Cc1cccc(OCC(=O)Nc2ccc(N3CCN(S(C)(=O)=O)CC3)cc2)c1,"inconclusive: 39.8 µM [inhibitor, single point]",–
NC(=O)c1c(NC(=O)c2ccc(S(=O)(=O)N3CCOCC3)cc2)sc2c1CCCCC2,"inconclusive: 7.94 µM [activator, full curve, poor fit]",–
Cc1c(-c2ccc(Br)cc2)c(=O)oc2ccc(OC(=O)N3CCOCC3)cc12,"inconclusive: 39.8 µM [activator, single point]",–
CCN(CC)C(=O)CSc1nc(-c2ccccc2F)nc2c1Cc1c(CO)cnc(C)c1O2,"inconclusive: 39.8 µM [activator, single point]",–

SMILES,Potency,"max response, negative = inhibition"
CCOc1ccc(-c2nnc(-c3cccs3)o2)cc1OCC,"inconclusive: 31.6 µM [activator, single point]",–
CCOC(=O)N1CCN(C(c2cccc(OC)c2)c2sc3nc(C)nn3c2O)CC1 (configuration not stated),"inconclusive: 25.1 µM [activator, single point]",–
COc1cccc(CNC(=O)C(=O)Nc2c3c(nn2-c2ccccc2)CSC3)c1,"inconclusive: 12.6 µM [inhibitor, partial curve, poor fit]",–
CCN(C(=O)C1CCN(S(=O)(=O)c2ccc3c(c2)CCCN3C(C)=O)CC1)c1cccc(C)c1,"inconclusive: 39.8 µM [activator, single point]",–
COc1ccccc1CCNC(=O)C(=O)NCC(c1ccc2c(c1)OCO2)N1CCOCC1 (configuration not stated),–,inactive: 3.35%
O=C(O/N=C\c1ccc(N2CCOCC2)c([N+](=O)[O-])c1)c1ccc(F)cc1,"inconclusive: 31.6 µM [activator, single point]",–
N#Cc1ccc(CS(=O)(=O)c2nnnn2-c2ccccc2)cc1,–,inactive: 4.28%
CCc1ccc2c(c1)NC(c1cccs1)=NC(c1ccc(F)cc1)=N2,"inconclusive: 31.6 µM [inhibitor, single point]",–
CSc1c(CC(=O)Nc2ccc(F)cc2)n(Cc2ccccc2)c2ccccc12,"inconclusive: 39.8 µM [inhibitor, single point]",–
O=C1OCCN1C(=O)[C@H]1[C@H](c2ccc([N+](=O)[O-])cc2)C(c2ccccc2)=NN1c1ccc(Br)cc1,active: 14.1 µM,–
CC(=O)N(Cc1cccnc1)c1nc2c(C)c(C)ccc2s1,"inconclusive: 39.8 µM [activator, single point]",–
CCOc1ccc(CCNC(=O)c2cc3c(=O)[nH]c4ccc(C)cc4c3s2)cc1OCC,"inconclusive: 20 µM [activator, partial curve]",–
O=C1OCCN1C(=O)[C@H]1[C@H](c2ccc(F)cc2)C(c2ccc(F)cc2)=NN1c1ccc(Br)cc1,active: 25.1 µM,–
CCCCNC(=O)CSc1nc2ccccc2c(=O)n1Cc1ccc2c(c1)OCO2,active: 20 µM,–
CCCS(=O)(=O)c1c(Nc2ccccc2C)sc(C(=O)c2ccccc2)c1N,"inconclusive: 39.8 µM [inhibitor, single point]",–
CC(=O)Oc1ccc2c(c1OC(C)=O)OCC1(O)Cc3c(cc(OC(C)=O)c(OC(C)=O)c3OC(C)=O)C21 (configuration not stated),"inconclusive: 31.6 µM [activator, single point]",–
CCc1c(C)nc2cc(-c3cc(OC)cc(OC)c3)nn2c1N1CCCC1,"inconclusive: 25.1 µM [activator, single point]",–
O=C(CSc1nn(-c2ccccc2)c(=S)s1)NC(=O)NCc1ccco1,"inconclusive: 39.8 µM [inhibitor, single point]",–
Cc1c(Cl)cccc1NC(=O)CSc1nc2c(c(=O)[nH]1)CCCC2,"inconclusive: 39.8 µM [inhibitor, single point]",–
CCn1c(=O)n(CC)c2cc(N3CCCCC3)c(NC(=O)Nc3ccccc3Cl)cc21,"inconclusive: 39.8 µM [activator, single point]",–
